Results reported in PubChem BioAssay AID1030 (National Center for Advancing Translational Sciences (NCATS), 2008).
In all, about 220,000 compounds went through this assay and about 16,000 (7.3%) were called active. This list was built around the results that the source calls inconclusive (neither active nor inactive); the mix of calls is not that of the screen. Calls follow the shape of the dose curve; as a rule, active = well fitted inhibition curve with a large enough effect (not every such curve was filed as active); inconclusive = small, poorly fitted or top-dose-only effect, or another doubt; inactive = no such curve, though single readings can be large or run the other way. Potencies of inconclusive entries are left out as doubtful fits.
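For activity, negative = inhibition in this document: plate controls were no enzyme wells and a reference inhibitor.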
Potency is read from the fitted curve at half-maximal effect; tags tell the direction and shape of the fitted curve.

Each molecule was assayed against Aldehyde dehydrogenase 1A1 (Homo sapiens) (UniProt P00352) (assay: qHTS Assay for Inhibitors of Aldehyde Dehydrogenase 1 (ALDH1A1)). Settings: Purified ALDH1A1, NADH fluorescence, propionaldehyde substrate; series mostly up to 75.3 µM; activity, negative = inhibition: at the top concentration.
Chain of UniProt P00352 (P00352 whole entry, looked up): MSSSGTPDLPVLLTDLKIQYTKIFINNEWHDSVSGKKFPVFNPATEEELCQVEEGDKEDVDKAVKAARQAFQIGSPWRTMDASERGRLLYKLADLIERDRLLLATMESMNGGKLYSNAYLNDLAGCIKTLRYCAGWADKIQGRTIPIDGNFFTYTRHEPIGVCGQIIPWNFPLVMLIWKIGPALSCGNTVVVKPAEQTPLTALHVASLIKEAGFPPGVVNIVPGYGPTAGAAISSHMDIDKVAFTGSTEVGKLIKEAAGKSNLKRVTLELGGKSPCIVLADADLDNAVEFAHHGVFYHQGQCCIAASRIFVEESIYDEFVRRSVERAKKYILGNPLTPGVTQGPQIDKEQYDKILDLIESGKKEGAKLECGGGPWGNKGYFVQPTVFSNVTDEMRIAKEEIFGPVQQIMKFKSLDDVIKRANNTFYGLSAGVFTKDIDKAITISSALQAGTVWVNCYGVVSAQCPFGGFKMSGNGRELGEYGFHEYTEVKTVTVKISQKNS
With Cc1ccc(C(=O)COC(=O)CCN2C(=O)C3C4CC(C(Br)C4Br)C3C2=O)cc1 (configuration not stated) the Potency was inconclusive [inhibitor, single point].
In the case of Cc1cccc(OCCn2c(-c3ccco3)nc3ccccc32)c1, the Potency is reported as inconclusive [inhibitor, single point].
Cc1nn(CCCC(=O)Nc2sc3c(c2C#N)CCC3)c(C)c1[N+](=O)[O-] was tested, and the Potency was active: 2.51 µM.
For O=C(N/C(=N\O)c1ccccc1)Nc1ccc(Cl)cc1, the Potency was inconclusive [inhibitor, partial curve, poor fit].
For CCN(CC)Cc1nc2c(c(=O)[nH]1)C1(CCCCC1)Cc1ccccc1-2, the Potency was active: 25.1 µM.
CC(C)c1ccc(S(=O)(=O)c2cn(Cc3ccc(F)cc3)c3cc4c(cc3c2=O)OCO4)cc1 was tested, and the Potency was inconclusive [inhibitor, full curve].
With CSc1ccc(/C=N/Nc2cccc(C(=O)O)c2)cc1 the “activity, negative = inhibition” value was inactive: -9.48%.
In the case of CCN(CC)S(=O)(=O)c1ccc(N2CCOCC2)c(NC(=O)c2cccc3ccccc23)c1, the Potency is reported as active: 12.6 µM.
COC(=O)c1cnc(NNC(=O)c2ccc([N+](=O)[O-])cc2)nc1C(F)(F)F was tested, and the Potency was inconclusive [inhibitor, single point].
With O=[N+]([O-])c1ccc(CN2CCOCCOCCN(Cc3ccc([N+](=O)[O-])cc3)CCOCC2)cc1 the Potency was inconclusive [inhibitor, single point].
With Cc1c(NS(=O)(=O)c2ccc(N3CCN(C)CC3)c([N+](=O)[O-])c2)c(=O)n(-c2ccccc2)n1C the “activity, negative = inhibition” value was inactive: -1.4%.
With CC(=O)Nc1ccc(NC(C)=C(C#N)C#N)cc1 the “activity, negative = inhibition” value was inactive: 3.01%.
CSc1ccc(/C=C/c2ccc3cccc(O)c3n2)cc1 was tested, and the “activity, negative = inhibition” value was inactive: -1.44%.
With COc1ccc(C2NN=C(c3ccc(C)cc3)S2)cc1OC (configuration not stated) the Potency was inconclusive [inhibitor, partial curve].
For CN(Cc1ccccc1)C(=O)COC(=O)/C=C/c1ccco1, the Potency was inconclusive [inhibitor, single point].
For Cc1ccc(-n2nc3ccc(NC(=O)C(C)C)cc3n2)cc1, the Potency was inconclusive [inhibitor, partial curve].
For O=C(Nc1ccc2oc(-c3ccncc3)nc2c1)c1c(F)c(F)c(F)c(F)c1F, the Potency was inconclusive [inhibitor, single point].
For CCOc1ccc(C(=O)NCCC2=CCCCC2)cc1OCC, the Potency was active: 25.1 µM.
For COc1ccc(-n2ncc3c(N4CCN(Cc5ccccc5)CC4)ncnc32)cc1, the Potency was inconclusive [inhibitor, single point].
With CC(=O)c1cccc(S(=O)(=O)NCC2CCCCC2)c1 the Potency was inconclusive [inhibitor, partial curve].
For CN1CCN(C(=O)CCN2C(=O)/C(=C/c3ccccc3Cl)SC2=S)CC1, the Potency was inconclusive [inhibitor, single point].
In the case of COc1ccc(CN2CCNC(=O)C2CC(=O)NCc2cn3ccc(C)cc3n2)c(OC)c1 (configuration not stated), the Potency is reported as inconclusive [inhibitor, single point].
With Cc1c(Br)c([N+](=O)[O-])nn1CC(=O)N1CCN(Cc2ccccc2)CC1 the “activity, negative = inhibition” value was inactive: -11.6%.
For O=C(c1cnccn1)N1CCC2(CCCN(c3ccc(-c4ccccc4)cc3)C2)CC1, the Potency was inconclusive [inhibitor, partial curve].
For COc1cc(SC)ccc1C(=O)NCc1ccccc1, the Potency was inconclusive [inhibitor, single point].
With Cc1ccsc1/C=N/NC(=O)C1CC(=O)N(c2ccccc2)C1 (configuration not stated) the “activity, negative = inhibition” value was inactive: 4.3%.
N#CC1=C(N)NC(SCC(=O)Nc2ccccc2)=C(C#N)C12CCCCC2 was tested, and the Potency was active: 25.1 µM.
In the case of CC(C)CN1CCN(Cc2nc(C(C)C)cs2)CC1CCO (configuration not stated), the Potency is reported as inconclusive [inhibitor, single point].
For Cc1ccc(-c2cc(C(=O)Nc3nn[nH]n3)c3ccccc3n2)cc1, the Potency was inconclusive [inhibitor, single point].
In the case of C=C(C)COc1ccc(-c2n[nH]c(C)c2Oc2ccccc2OC)c(O)c1, the Potency is reported as inconclusive [inhibitor, full curve].
For Cc1ccc(C)c(N2CCN(C(=O)c3ccc(CS(=O)(=O)c4ccccc4C)o3)CC2)c1, the Potency was inconclusive [inhibitor, single point].
In the case of COC(=O)C1=C(C)OC(N)=C(C#N)C1c1ccc(OC)c(CSc2ccccn2)c1 (configuration not stated), the Potency is reported as inconclusive [inhibitor, single point].
With CC(C)(C)c1ccc(OCC(=O)NCc2ccco2)c(Br)c1 the Potency was active: 17.8 µM.
With O=C(c1ccc(Cl)c([N+](=O)[O-])c1)N1CCN(c2ccccn2)CC1 the Potency was active: 10 µM.
In the case of COc1ccc(Cl)cc1NC(=O)CSc1nncn1-c1cccnc1, the Potency is reported as inconclusive [inhibitor, single point].
For O=C(CSc1nnc2ccc(-c3ccccc3)nn12)NCC1CCCO1 (configuration not stated), the “activity, negative = inhibition” value was inactive: -6.42%.
For O=C(CSc1ccc2nnc(-c3ccncc3)n2n1)NCc1ccco1, the Potency was inconclusive [inhibitor, single point].
With C#C[C@]1(O)CC[C@H]2[C@@H]3CCC4=C(CCC(=O)C4)[C@H]3CC[C@@]21C the “activity, negative = inhibition” value was inactive: -4.73%.
With CCCCNC(=O)COC(=O)c1cc(Br)ccc1Cl the “activity, negative = inhibition” value was inactive: 6.85%.
With CC1(C)OC(=O)C(=CNCC(O)c2ccccc2)C(=O)O1 (configuration not stated) the Potency was active: 11.2 µM.
In the case of CCOC(=O)c1c(NC(=O)c2cccs2)sc(C(=O)N(C)C)c1C, the Potency is reported as active: 22.4 µM.
In the case of O=C(CSc1nnc(-c2cccnc2)n1Cc1ccccc1)NCc1ccco1, the “activity, negative = inhibition” value is reported as inactive: -2.12%.
For O=C(CCNS(=O)(=O)c1ccc(Br)s1)N1CCCCC1, the Potency was inconclusive [inhibitor, single point].
For O=C1CC(c2ccco2)Cc2nc(Nc3ccc(F)cc3)ncc21 (configuration not stated), the Potency was active: 10 µM.
With O=C(CNCc1ccc(Cl)cc1)NCc1ccco1 the “activity, negative = inhibition” value was inactive: -8.38%.
In the case of CCC1(C)Cc2nc3[nH]c(=S)n(-c4ccccc4)c(=O)c3cc2CO1 (configuration not stated), the Potency is reported as inconclusive [inhibitor, full curve].
With O=C(Cn1ccc2ccccc2c1=O)N1CCN(Cc2ccc3c(c2)OCO3)CC1 the Potency was inconclusive [inhibitor, single point].
